The results in this text go back to PubChem BioAssay AID588591 (National Center for Advancing Translational Sciences (NCATS), 2011).

Hit rate of the full screen: of about 390,000 compounds, about 4,700 (1.2%) were called active. Inconclusive results (about 4%) are left out. Calls come from the whole dose curve; as a rule, active = well fitted inhibition curve with a large enough effect; inconclusive = small, poorly fitted or top-dose-only effect, or another doubt; inactive = no such curve, though single readings can be large or run the other way. The list shows a part of the results, in another mix than the full data.
% is set by controls: 0 for no effect and ±100 for the full control effect; potency is the fitted concentration of half-maximal effect.

This assay concerns the target DNA polymerase eta (Homo sapiens) (UniProt Q9Y253). Nature of the assay: qHTS for Inhibitors of Polymerase Eta. To be noted: recombinant Pol eta, fluorescent DNA replication assay; series mostly up to 114 µM; activity change, negative = inhibition: at the top concentration. The text has this: The Y-family of DNA polymerases, such as Pol eta, are specifically involved in DNA repair. Pol eta copies undamaged DNA with a lower fidelity than other DNA-directed polymerases. However, it accurately replicates UV-damaged DNA; when thymine dimers are present, this polymerase inserts the complementary nucleotides in the newly synthesized DNA, thereby bypassing the lesion and suppressing the mutagenic effect of UV-induced DNA damage. […] Thus, while pol eta's (and most likely iota's) normal function is to protect humans against the deleterious consequences of DNA damage, under certain conditions they can have deleterious effects on human health. As a consequence, we propose to utilize a high throughput replication assay to identify small molecule inhibitors of pol eta. In a collaboration between the National Institute of Child Health & Human Development (NICHD) and NIH Chemical Genomics Center, a high-throughput, fluorescent screen was developed to screen the NIH Molecular Libraries Small Molecule Repository (MLSMR). This screen is used to identify inhibitors of pol eta. NIH Chemical Genomics Center [NCGC] NIH Molecular Libraries Probe Centers Network [MLPCN] MLPCN Grant: MH090825 Assay Submitter (PI): Roger Woodgate, NICHD)
UniProt Q9Y253, sequence (Q9Y253 whole entry, looked up): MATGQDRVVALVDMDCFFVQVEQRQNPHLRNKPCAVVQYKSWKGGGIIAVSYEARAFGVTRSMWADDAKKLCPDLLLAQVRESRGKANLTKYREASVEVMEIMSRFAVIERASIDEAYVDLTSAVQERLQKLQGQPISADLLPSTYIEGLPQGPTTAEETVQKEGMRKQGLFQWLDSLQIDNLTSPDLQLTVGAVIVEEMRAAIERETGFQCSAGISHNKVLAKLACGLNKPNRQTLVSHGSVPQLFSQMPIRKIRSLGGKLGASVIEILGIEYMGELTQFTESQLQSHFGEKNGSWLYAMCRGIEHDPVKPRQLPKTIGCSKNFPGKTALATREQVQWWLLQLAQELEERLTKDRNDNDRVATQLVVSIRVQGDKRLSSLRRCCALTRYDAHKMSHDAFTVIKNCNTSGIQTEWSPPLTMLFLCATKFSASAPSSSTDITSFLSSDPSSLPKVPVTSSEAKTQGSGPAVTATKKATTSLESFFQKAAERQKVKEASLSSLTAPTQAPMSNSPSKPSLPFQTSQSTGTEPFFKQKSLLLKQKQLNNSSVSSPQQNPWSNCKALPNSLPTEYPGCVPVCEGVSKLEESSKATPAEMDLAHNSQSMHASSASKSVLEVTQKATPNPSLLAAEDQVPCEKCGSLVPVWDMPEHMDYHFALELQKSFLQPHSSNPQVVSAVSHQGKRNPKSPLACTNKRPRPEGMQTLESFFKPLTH
Three microliters of reagents (buffer in column 3 and 4 as negative control and 10 nM Pol eta in columns 1, 2, and 5-48) were dispensed into a 1,536-well black solid-bottomed plate. Compounds (23 nL) were transferred via Kalypsys pin tool equipped with 1536-pin array. The plates were then incubated for 15 min at room temperature, and 1 µL substrate (50 nM final concentration) was added to start the reaction and kinetically read twice at 0 min and 10 min on the Viewlux reader
For the compound `Cc1ccc(NC(=O)N/C=C/c2ccco2)cc1C`, the Potency was active: 28.2 µM. For `CCOc1ccc(NS(=O)(=O)c2ccc3[nH]cc(C(=O)NCCOC)c(=O)c3c2)cc1`, the “activity change, negative = inhibition” value was inactive: 3.57%. Same read-out and setting: as for `CCCCCC(=O)N1C[C@@H](n2cc(C3CC3)nn2)[C@H](O)C[C@@H]1c1ccc(Cl)cc1`, the figure is inactive: -17.3%; as for `O=C(COc1ccc2c(-c3ccccc3)cc(=O)oc2c1)NC(Cc1c[nH]c2ccccc12)C(=O)O` (configuration not stated), inactive: 2.65%; as for `C=CCC[C@H](Cc1ccc(F)cc1)C(=O)OC[C@@H](Cc1c[nH]c2ccccc12)NC(=O)[C@@H](CC=C)CC(=O)N(CCO)Cc1ccccc1`, inactive: -14.9%. On to `CC(=O)c1ccc(NC(=O)c2noc3c2CCC3)cc1`, for which the Potency was active: 44.7 µM. For `C#CCNC(=O)C1=C[C@@H](c2ccc(C#C)cc2)C[C@@H](OCc2ccc(CO)cc2)O1`, the “activity change, negative = inhibition” value was inactive: -12.3%. For the compound `Cc1ccc(-c2nc(NC(=O)CSc3cc(C)c4ccccc4n3)ns2)cc1`, the “activity change, negative = inhibition” value was inactive: -3.16%. As for `C=CCSc1nnc(-c2cnn(-c3ccccc3)c2-n2cccc2)n1C`, the “activity change, negative = inhibition” value was inactive: -7.17%. Take `O=C(Nc1ccc2c(c1)OCO2)c1cc2ncc(Br)cn2n1`: the Potency is active: 3.55 µM. In the case of `OCC[C@H]1C[C@@H](O)[C@H](O)[C@]2(CCCc3ccccc3O2)O1`, the “activity change, negative = inhibition” value was inactive: 1.89%. On the same count and under the same terms, as for `CCn1cc(C(=O)NCCCN(CC(C)C)CC(C)C)c(=O)c2cc(S(=O)(=O)N(C)C3CCCCC3)ccc21`, the figure is inactive: -16.8%; as for `CC1(C)CC(=O)C(C=Nc2ccc(Cl)cn2)=C(O)C1`, inactive: 3.72%.

Consider `COc1ccccc1CNC(=O)C1CCCN(c2nn3cc(-c4ccc(F)cc4)nc3s2)C1` (configuration not stated), for which the “activity change, negative = inhibition” value was inactive: 19.3%. Same read-out and setting: the same measure for `Cc1ccc(C2C(C#N)=C(N)Oc3cc(C)oc(=O)c32)o1` (configuration not stated): inactive: 30.8%. On the same count and under the same terms, as for `O=C(O)CC/C(=C\c1cccc(NC(=O)c2ccccc2Cl)c1)c1nc2ccccc2s1`, the figure is inactive: -9.38%. With `Cc1cccc(N=C2NC(=O)/C(=C/c3cccs3)S2)c1`, the “activity change, negative = inhibition” value was inactive: -17.8%. On the same count and under the same terms, as for `Cn1cc(CCC(=O)NCc2ccc(Cl)cc2)c2ccccc21`, the figure is inactive: -20.1%; as for `O=[N+]([O-])c1cccc(-c2ccc3nnc(SCc4cccnc4)n3n2)c1`, inactive: 33.5%; as for `CCc1nnc2c(NCCc3ccc(OC)c(OC)c3)nc3ccccc3n12`, inactive: -8.39%. Still for that read-out and setting: as for `CCOc1cccc(CNc2ccc(O)cc2)c1OCc1ccccc1Cl`, the figure is inactive: -22.1%. Consider `Cc1cc(-c2n[nH]c(=S)n2/N=C/C=C/c2ccco2)n[nH]1`, for which the Potency is active: 44.7 µM. As to `Cc1cc(N/N=C/c2ccccc2)nc(N)n1`, the “activity change, negative = inhibition” value is inactive: 34.7%.

In the case of `O=C1NC2c3c(Cl)sc(Cl)c3C(=O)C2O1` (configuration not stated), the Potency was active: 3.16 µM.

For `N#C/C(=C/c1cccs1)c1nc2ccccc2[nH]1`, the “activity change, negative = inhibition” value is inactive: -2.14%. Still for that read-out and setting: as for `C=CCC[C@@H](Cc1ccc(F)cc1)C(=O)OC[C@H](Cc1c[nH]c2ccccc12)NC(=O)[C@H](CC=C)CC(=O)N(CCO)Cc1ccccc1`, the figure is inactive: -8.12%; as for `Oc1ccccc1-c1nc(/C=C/c2ccccc2)nn1-c1ccccc1`, inactive: -25%; as for `O=C(CCNc1cc(Cl)cc(Cl)c1)c1ccco1`, inactive: -4.98%.

On to `CCCCCCN1C[C@@H](n2cc(COC(=O)c3ccccc3)nn2)[C@H](O)C[C@@H]1c1ccc(C)cc1`, for which the “activity change, negative = inhibition” value was inactive: -27.4%.

As to `CCn1cnc2cc(NCc3ccc(N(C)C)cc3)ccc21`, the “activity change, negative = inhibition” value was inactive: -11.4%.

On to `COc1ccccc1/C=C/C=N/n1c(C2CCCCC2)n[nH]c1=S`, for which the “activity change, negative = inhibition” value was inactive: -6.32%.

As to `COc1ccc(C(CC(=O)N2CCCCC2)c2c(OC)cc(OC)c3c(-c4ccccc4)cc(=O)oc23)cc1` (configuration not stated), the Potency was active: 20 µM.

Consider `O=C(NCc1ccco1)/C(=C\c1ccco1)NC(=O)c1ccc(Br)o1`, for which the “activity change, negative = inhibition” value was inactive: -4.66%. Turning to `CCc1nnc(SCC(=O)N(C)c2ccccc2)c2cc3sccc3n12`, the “activity change, negative = inhibition” value was inactive: 18.3%. In the case of `CS(=O)(=O)C1=NN2C(=N)/C(=C\c3ccc(OCCOc4ccccc4)cc3)C(=O)N=C2S1`, the Potency was active: 44.7 µM. For the compound `C=CC[C@@H](CC(=O)N(CCO)Cc1ccccc1)C(=O)N[C@H](COC(=O)[C@@H](CC=C)Cc1ccc(F)cc1)Cc1ccccc1`, the “activity change, negative = inhibition” value was inactive: -24.1%. As for `COc1ccc(NC(=O)C(c2ccc(C)cc2)N(C)C(=O)Cc2cccs2)cc1` (configuration not stated), the “activity change, negative = inhibition” value was inactive: -16.9%. Same read-out and setting: as for `Cc1cc(=S)[nH]c(=S)[nH]1`, the figure is inactive: 35.3%.

As for `C[n+]1cccc2cccc([O-])c21`, the Potency was active: 22.4 µM. On to `Cc1cc(C(=O)O)ccc1-c1ccc(/C=C2\NC(=O)N(Cc3ccc(F)cc3)C2=O)o1`, for which the Potency is active: 7.08 µM. Turning to `COc1cc(C2NC(=O)NC(C)=C2[N+](=O)[O-])cc(OC)c1OC` (configuration not stated), the “activity change, negative = inhibition” value was inactive: 41%. As to `CSCC[C@H](NC(=O)CCCn1nnc2ccccc2c1=O)C(=O)O`, the “activity change, negative = inhibition” value was inactive: 34.8%. The same measure, in the same setting: the same measure for `COc1ccc([C@H]2C[C@@H](O)[C@H](n3cc(COC(=O)c4ccccc4)nn3)CN2CC2CCCCC2)cc1`: inactive: -11.8%. With `O=C(COC(=O)/C=C/c1ccc2ccccc2n1)NNC(=O)c1ccccc1`, the Potency was active: 39.8 µM. For `CC(=O)N(OCc1ccc(OC(C)C)c(Cl)c1)C(C)=O`, the “activity change, negative = inhibition” value was inactive: 30.5%. Turning to `C=CCC[C@H](Cc1ccc(F)cc1)C(=O)OC[C@H](Cc1c[nH]c2ccccc12)NC(=O)[C@H](CC=C)CC(=O)N(CCO)Cc1ccccc1`, the “activity change, negative = inhibition” value is inactive: -17.1%.

Turning to `CCCNC(=O)Nc1cc(S(=O)(=O)CC)ccc1O`, the “activity change, negative = inhibition” value was inactive: 33.4%.
